Assay results published in the supplement of paper PMC12217912.
The list shows a part of the results. Sequences were assembled here from the parent chain. Inactive controls read about 0.05.

B1: TEV protease; numbered along this chain (parent)
chain: MGESLFKGPRDYNPISSSICHLTNESDGHTTSLYGIGFGPFIITNKHLFRRNNGTLVVQSLHGVFKVKDTTTLQQHLVDGRDMIIIRMPKDFPPFPQKLKFREPQREERICLVTTNFQTKSMSSMVSDTSCTFPSGDGIFWKHWIQTKDGQCGSPLVSTRDGFIVGIHSASNFTNTNNYFTSVPKNFMELLTNQEAQQWVSGWRLNADSVLWGGHKVFMVKPEEPFQPVKEATQL

Variants of: B1
Test: raw area under fraction-flipped curve 0-4 h after induction (AUC4h, not background-subtracted), DNA-recorder readout of cleavage of the substrate (dimensionless); higher = more cleavage of the substrate by the protease variant
Details: temperature: 34 °C; time window: 0-4 h after rhamnose induction
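Note: Bxb1 expression induced with 0.2% (w/v) L-rhamnose at OD600 near 0.5, cultures sampled hourly, flipped fraction per protease–substrate barcode pair counted by paired-end Illumina sequencing.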

## MGESLFKGPRDYNPISSSICHLTNESDGHTTSLYGIGFGPFIITNKHLFRRNNGTLVVQSLHGVFKVKDTTTLQQHLVDGRDMIIIRMPKDFPPFPQKLKFREPQREERICLVTTNFQTKSMSSMVSDTSCTFPSGDGIFWKHWIQTKDGQCGSPLVSTRDGFIVGIHSASNFTNTNNYFTSVPKNFMELLTNQEAQQWVSGWRLNADSVLWGGHKVFMVKPEEPFQPVKEATHL [Q234H]
  area with substrate ECLYFQS: 0.103
  area with substrate EHLYFQS: 0.131
  area with substrate EILYFQS: 0.0285
  area with substrate EPLYFQS: 0.133
  area with substrate EQLYFQS: 0.111
  area with substrate ESLYFQS: 0.127
  area with substrate EYLYFQS: 0.113

## MGESLFKGPRDYNPISSSICHLTNESDGHTTSLGGIGFGPFIITNKHLFRRNNGTLVVQSLHGVFKVKDTTTLQQHLVDGRDMIIIRMPKDFPPFPQKLKFREPQREERICLVTTNFQTKSMSSMVSDTSCTFPSGDGIFWKHWIQTKDGQCGSPLVSTRDGFIVGIHSASNFTNTNNYFTSVPKNFMELLTNQEAQQWVSGWRLNADSVLWGGHKVFMVKPEEPFQPVKEATQL [Y34G]
  area with substrate EDLYFQS: 0.139
  area with substrate EFLYFQS: 0.111
  area with substrate EILYFQS: 0.0984
  area with substrate EMLYFQS: 0.085
  area with substrate ERLYFQS: 0.0864
  area with substrate EWLYFQS: 0.0788
  area with substrate EYLYFQS: 0.0852

## MGESLFKGPRDYNPISSSICHLTNESDGHTTSLYGIGFGEFIITNKHLFRRNNGTLVVQSLHGVFKVKDTTTLQQHLVDGRDMIIIRMPKDFPPFPQKLKFREPQREERICLVTTNFQTKSMSSMVSDTSCTFPSGDGIFWKHWIQTKDGQCGSPLVSTRDGFIVGIHSASNFTNTNNYFTSVPKNFMELLTNQEAQQWVSGWRLNADSVLWGGHKVFMVKPEEPFQPVKEATQL [P40E]
  area with substrate EDLYFQS: 0.13
  area with substrate EELYFQS: 0.134
  area with substrate EILYFQS: 0.138
  area with substrate EKLYFQS: 0.132
  area with substrate ELLYFQS: 0.0949
  area with substrate EMLYFQS: 0.129
  area with substrate ERLYFQS: 0.153
  area with substrate ESLYFQS: 0.122
  area with substrate ETLYFQS: 0.158
  area with substrate EWLYFQS: 0.153

## MGESLFKGPRDYNPISSSICHLTNESDGHTTSLYGIGFGPFIITNKHLFRRNNGTLVVQDLHGVFKVKDTTTLQQHLVDGRDMIIIRMPKDFPPFPQKLKFREPQREERICLVTTNFQTKSMSSMVSDTSCTFPSGDGIFWKHWIQTKDGQCGSPLVSTRDGFIVGIHSASNFTNTNNYFTSVPKNFMELLTNQEAQQWVSGWRLNADSVLWGGHKVFMVKPEEPFQPVKEATQL [S60D]
  area with substrate EDLYFQS: 0.0758
  area with substrate EPLYFQS: 0.104
  area with substrate ERLYFQS: 0.107
  area with substrate ESLYFQS: 0.0897
  area with substrate ETLYFQS: 0.0727
  area with substrate EVLYFQS: 0.0826
  area with substrate EYLYFQS: 0.0866

## MGESLFKGPRDYNPISSSICHLTNESDGHTTSLYGIGFGPFIITNKHLFRRNNGTLVVQSLHGVFKVKDTTTLQQHLVDGRDMIIIRMPLDFPPFPQKLKFREPQREERICLVTTNFQTKSMSSMVSDTSCTFPSGDGIFWKHWIQTKDGQCGSPLVSTRDGFIVGIHSASNFTNTNNYFTSVPKNFMELLTNQEAQQWVSGWRLNADSVLWGGHKVFMVKPEEPFQPVKEATQL [K90L]
  area with substrate EDLYFQS: 0.113
  area with substrate EELYFQS: 0.0948
  area with substrate EFLYFQS: 0.103
  area with substrate EGLYFQS: 0.132
  area with substrate EILYFQS: 0.0967
  area with substrate EKLYFQS: 0.103
  area with substrate ELLYFQS: 0.0995
  area with substrate EMLYFQS: 0.111
  area with substrate EQLYFQS: 0.116
  area with substrate ERLYFQS: 0.0967
  area with substrate ESLYFQS: 0.111
  area with substrate ETLYFQS: 0.165
  area with substrate EVLYFQS: 0.0886
  area with substrate EWLYFQS: 0.0851

## MGESLFKGPRDYNPISSSICHLTNESDGHTTSLYGIGFGPFIITNKHLFRRNNGTLVVQSLHGVFKVKDTTTLQQHLVDGRDMIIIRMPKDFPPFPQKLKFREPQREERICLVTTNFQTKSMSSMVSDTSCTFPSGDGIAWKHWIQTKDGQCGSPLVSTRDGFIVGIHSASNFTNTNNYFTSVPKNFMELLTNQEAQQWVSGWRLNADSVLWGGHKVFMVKPEEPFQPVKEATQL [F140A]
  area with substrate EDLYFQS: 0.055
  area with substrate EELYFQS: 0.0607
  area with substrate EHLYFQS: 0.0548
  area with substrate EKLYFQS: 0.0668
  area with substrate EPLYFQS: 0.0642
  area with substrate ESLYFQS: 0.0627

## MGESLFKGPRDYNPISSSICHLTNESDGHTTSLYGIGFGPFIITNKHLFRRNNGTLVVQSLHGVFKVKDTTTLQQHLVDGRDMIIIRMPKDFPPFPQKLKFREPQREERICLVTTNFQTKSMSSMVSDTSCTFPSGDGIFWKHWIQTFDGQCGSPLVSTRDGFIVGIHSASNFTNTNNYFTSVPKNFMELLTNQEAQQWVSGWRLNADSVLWGGHKVFMVKPEEPFQPVKEATQL [K148F]
  area with substrate EDLYFQS: 0.109
  area with substrate EKLYFQS: 0.101
  area with substrate EPLYFQS: 0.104
  area with substrate ERLYFQS: 0.0615
  area with substrate EVLYFQS: 0.103
  area with substrate EWLYFQS: 0.105

## MGESLFKGPRDYNPISSSICHLTNESDGHTTSLYGIGFGPFIITNKHLFRRNNGTLVVQSLHGVFKVKDTTTLQQHLVDGRDMIIIRMPKDFPPFPQKLKFREPQREERICLVTTNFQTKSMSSMVSDTSCTFPSGDGIFWKHWIQTKDGQCGSPLVSTRDGFIVGIHSASNFTNTNNYFTSVPKEFMELLTNQEAQQWVSGWRLNADSVLWGGHKVFMVKPEEPFQPVKEATQL [N186E]
  area with substrate EDLYFQS: 0.122
  area with substrate EILYFQS: 0.106
  area with substrate EMLYFQS: 0.134
  area with substrate EQLYFQS: 0.107
  area with substrate ERLYFQS: 0.0852
  area with substrate ESLYFQS: 0.111
  area with substrate EVLYFQS: 0.105
  area with substrate EYLYFQS: 0.136

## MGESLFKGPRDYNPISSSICHLTNESDGHTTSLYGIGFGPFIITNKHLFRRNNGTLVVQSLHGVFKVKDTTTLQQHLVDGRDMIIIRMPKDFPPFPQKLKFREPQREERICLVTTNFQTKSMSSMVSDTSCTFPSGDGIFWKHWIQTKDGQCGSPLVSTRDGFIVGIHSASNFTNTNNYFTSVPKNFMELLTNQEAQQWVSGWRLNADSVLWGGHKVFMVKYEEPFQPVKEATQL [P222Y]
  area with substrate EDLYFQS: 0.0929
  area with substrate EELYFQS: 0.102
  area with substrate EGLYFQS: 0.0716
  area with substrate EILYFQS: 0.0858
  area with substrate EKLYFQS: 0.107
  area with substrate EMLYFQS: 0.104
  area with substrate EPLYFQS: 0.0907
  area with substrate EQLYFQS: 0.0965
  area with substrate ERLYFQS: 0.0691
  area with substrate EWLYFQS: 0.082
  area with substrate EYLYFQS: 0.0888

## MGESLFKGPNDYNPISSSICHLTNESDGHTTSLYGIGFGPFIITNKHLFRRNNGTLVVQSLHGVFKVKDTTTLQQHLVDGRDMIIIRMPKDFPPFPQKLKFREPQREERICLVTTNFQTKSMSSMVSDTSCTFPSGDGIFWKHWIQTKDGQCGSPLVSTRDGFIVGIHSASNFTNTNNYFTSVPKNFMELLTNQEAQQWVSGWRLNADSVLWGGHKVFMVKPEEPFQPVKEATQL [R10N]
  area with substrate EELYFQS: 0.117
  area with substrate EFLYFQS: 0.0873
  area with substrate EGLYFQS: 0.0996
  area with substrate EILYFQS: 0.0918
  area with substrate EKLYFQS: 0.127
  area with substrate ELLYFQS: 0.103
  area with substrate EPLYFQS: 0.0954
  area with substrate EQLYFQS: 0.109
  area with substrate ESLYFQS: 0.0841
  area with substrate ETLYFQS: 0.101
  area with substrate EVLYFQS: 0.102
  area with substrate EWLYFQS: 0.076
